# Experimental data reported in the supplement of paper PMC7826260.
# The list shows a part of the results. The data describe in vitro nicking of single-stranded DNA by Rep domains (1 h at 37 °C, 3 µM enzyme); the outer parts of the 90-letter strands are left off. A value is the log2 ratio of uncut reads to the pool without enzyme; more negative means more cut, near 0 not cut, and no call is made. Because reads are shares of a total, they shift together; uncut strands gain when others are lost, and binding without cutting may add a little.
# Assays:
# Test in all cases: uncleaved DNA left, log2 of reads against the no-enzyme library (log2 ratio); higher = less cleavage (more negative = more Rep cleavage of the k-mer); sequences stand for … in CTCGTCCG…ACCGGAGA
# [1] = system: T1, Rep nickase domain of Muscovy duck circovirus
# T1 sequence (protein, residues 1-111, tag omitted): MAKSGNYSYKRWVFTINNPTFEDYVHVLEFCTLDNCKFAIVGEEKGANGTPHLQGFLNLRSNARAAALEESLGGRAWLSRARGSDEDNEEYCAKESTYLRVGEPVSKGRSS
# Experimental: (§1)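 A pool of 90-nt single-stranded DNAs with seven random bases just before the constant AC of the nick site (name = the seven bases) was cut by 3 µM recombinant His6-SUMO-tagged Rep nickase domain (300 nM DNA, 50 mM HEPES pH 8.0, 50 mM NaCl, 1 mM MnCl2, 1 h, 37 °C, three replicates). Uncut DNA was amplified and sequenced.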
# [2] = system: T2, Rep nickase domain of banana bunchy top virus
# T2 sequence (protein, residues 1-94, tag omitted): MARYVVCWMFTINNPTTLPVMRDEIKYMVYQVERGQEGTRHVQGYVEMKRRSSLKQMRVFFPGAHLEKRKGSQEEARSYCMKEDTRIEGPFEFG
# Experimental: as §1
# [3] = system: T3, Rep nickase domain of cabbage leaf curl virus
# T3 sequence (protein, residues 1-116, tag omitted): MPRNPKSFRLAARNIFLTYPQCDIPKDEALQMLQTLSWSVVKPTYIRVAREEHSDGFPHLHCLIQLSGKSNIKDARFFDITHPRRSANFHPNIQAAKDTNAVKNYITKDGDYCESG
# Experimental: as §1
# [4] = system: T4, Rep nickase domain of chickpea chlorotic dwarf virus
# T4 sequence (protein, residues 1-124, tag omitted): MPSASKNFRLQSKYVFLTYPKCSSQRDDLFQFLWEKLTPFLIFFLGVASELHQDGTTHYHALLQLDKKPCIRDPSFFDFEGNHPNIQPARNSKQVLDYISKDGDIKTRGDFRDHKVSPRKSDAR
# Experimental: as §1
# [5] = system: T5, Rep nickase domain of faba bean necrotic yellows virus
# T5 sequence (protein, residues 1-98, tag omitted): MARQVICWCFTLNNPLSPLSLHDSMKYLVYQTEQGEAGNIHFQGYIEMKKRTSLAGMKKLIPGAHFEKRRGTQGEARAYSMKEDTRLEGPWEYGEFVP
# Experimental: as §1
# [6] = system: T6, Rep nickase domain of maize striate mosaic virus
# T6 sequence (protein, residues 1-117, tag omitted): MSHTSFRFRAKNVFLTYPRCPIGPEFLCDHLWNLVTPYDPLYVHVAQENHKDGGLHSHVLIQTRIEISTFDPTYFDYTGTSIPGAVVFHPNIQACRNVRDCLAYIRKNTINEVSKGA
# Experimental: as §1
# [7] = system: T7, Rep nickase domain of porcine circovirus 2
# T7 sequence (protein, residues 2-116, tag omitted): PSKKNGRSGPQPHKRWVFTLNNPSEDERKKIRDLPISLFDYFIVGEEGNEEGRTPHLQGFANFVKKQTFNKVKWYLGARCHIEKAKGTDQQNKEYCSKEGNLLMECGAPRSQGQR
# Experimental: as §1
# [8] = system: T8, Rep nickase domain of tomato golden mosaic virus
# T8 sequence (protein, residues 1-124, tag omitted): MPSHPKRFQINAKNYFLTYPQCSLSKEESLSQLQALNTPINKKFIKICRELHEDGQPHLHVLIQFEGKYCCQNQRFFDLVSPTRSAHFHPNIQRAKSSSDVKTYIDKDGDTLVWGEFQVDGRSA
# Experimental: as §1
# [9] = system: T9, Rep nickase domain of tomato yellow leaf curl virus
# T9 sequence (protein, residues 1-136, tag omitted): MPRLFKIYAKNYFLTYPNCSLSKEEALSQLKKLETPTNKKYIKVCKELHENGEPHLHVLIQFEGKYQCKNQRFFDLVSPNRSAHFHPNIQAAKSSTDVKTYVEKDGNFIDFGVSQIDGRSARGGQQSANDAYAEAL
# Experimental: as §1
# [10] = system: T10, Rep nickase domain of wheat dwarf virus
# T10 sequence (protein, residues 1-137, tag omitted): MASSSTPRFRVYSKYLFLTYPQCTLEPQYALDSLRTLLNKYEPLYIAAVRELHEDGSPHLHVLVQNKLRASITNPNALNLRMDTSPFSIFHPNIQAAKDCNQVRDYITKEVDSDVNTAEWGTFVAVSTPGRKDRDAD
# Experimental: as §1
Sequence,uncleaved DNA left (log2) [1],uncleaved DNA left (log2) [2],uncleaved DNA left (log2) [3],uncleaved DNA left (log2) [4],uncleaved DNA left (log2) [5],uncleaved DNA left (log2) [6],uncleaved DNA left (log2) [7],uncleaved DNA left (log2) [8],uncleaved DNA left (log2) [9],uncleaved DNA left (log2) [10]
GCTGTAG,-0.0294,0.188,-0.632,-0.394,0.118,-0.879,0.106,-0.0101,0.0658,-0.18
GGAGTTC,0.083,0.0468,0.59,1.3,0.0246,1.99,0.0622,0.148,0.224,0.197
AGTTGCA,-0.000642,0.0522,-0.645,-0.663,0.0429,-1.02,-0.106,0.0194,0.0916,-0.00924
GAATTAA,0.0305,0.062,0.143,0.399,0.0114,0.904,-0.0721,0.164,0.112,0.0361
AATCACA,0.0929,0.164,-0.0692,-2.58,0.123,-0.639,0.0328,0.104,0.0105,0.146
AAGCTAG,0.218,0.118,0.187,0.836,0.0666,0.554,0.32,0.219,-0.0551,0.155
CATAATT,-0.591,-3.26,-0.577,-3.25,-0.0878,-1.03,-3.57,-0.1,-0.224,-0.244
TCTAAAG,-0.0451,-0.125,-0.764,-0.697,0.0614,-1.28,0.243,-0.0373,0.0759,-0.117
CTATTTT,-3.67,-0.341,-2.71,-2.55,0.0775,-1.24,-3.55,-1.43,0.0259,-0.738
AGTGATG,-0.0669,-0.00133,0.0295,0.528,-0.106,1.57,0.107,0.009,-0.114,-0.0504
ATCCCTC,-0.0928,-0.0541,-0.000655,-0.117,-0.0862,-0.327,-0.129,-0.0633,-0.0812,-0.154
CTAAGTG,0.0391,0.0198,-0.701,-0.763,0.0127,-1.07,0.14,-0.0363,-0.0102,-0.00574
AACCACG,-0.0615,-0.116,-0.957,-0.276,-0.0741,-0.985,-0.371,-0.0616,-0.0258,-0.128
CACACCG,-0.124,-0.0235,-0.774,-0.0515,-0.0112,-0.622,0.169,-0.0553,0.0344,-0.0382
CACCTAT,0.0442,-0.156,-0.166,-2.1,0.152,-0.658,-0.623,0.0536,-0.0197,-0.0396
TCGACGG,0.0203,0.0477,0.193,0.851,0.0737,1.74,0.195,0.0461,-0.0768,0.0919
GCACTGT,-0.122,-0.137,-0.214,0.178,-0.132,0.443,-0.0611,-0.213,-0.178,-0.0648
CTTTTAT,-0.662,-0.0827,0.137,-1,0.00773,-0.52,-1.17,-0.0663,0.0437,-0.0023
AAAAACA,0.036,0.108,-0.358,-2.2,0.193,-0.625,0.0224,0.173,0.0847,0.125
ATTCTAT,-0.0644,-0.2,-0.138,-0.982,-0.0163,-0.608,-0.586,0.0176,-0.00972,-0.0175
CGCGTAG,-0.147,-0.208,-0.421,-0.38,-0.117,-0.761,0.0508,-0.0273,-0.0981,-0.209
GCACTCA,0.0735,0.134,0.0373,-0.35,0.045,0.0806,0.0785,0.0675,-0.0124,0.114
CTGAGGA,-0.0605,0.0328,0.105,0.427,0.166,-0.383,0.199,-0.0272,0.0161,0.0373
CAGTATC,-0.123,-0.151,-0.0696,-0.514,-2.01,-0.653,-3.14,-0.137,-0.212,-0.0663
CAGTCGA,0.15,0.0157,-0.604,-0.751,0.0642,-1.08,-0.791,0.174,0.105,0.0141
CTTAGGG,0.0306,0.0429,-0.179,0.0543,0.0726,-0.65,0.191,0.114,0.0233,-0.0225
GCATTAA,-0.0471,-0.0606,0.0231,0.263,-0.0295,-0.13,-0.0135,0.0468,-0.0544,0.0398
TACGCAG,0.0829,-0.147,-0.913,-0.803,-0.0824,-1.19,0.125,-0.0842,-0.0713,-0.133
GGTCCCT,-0.0213,0.0587,0.305,0.65,0.00903,1.63,-0.0475,-0.0252,0.079,0.079
